Test results taken from the supplement of paper PMC3334620.
The full ranking holds about 33,000 sequences; the median of “E-score (-0.5 to 0.5)” is about -0.04, and the highest 2% start at about 0.36. This is one part of the list.

biological target: T1, Hmlalpha2 (UniProt P0CY09); experiment: PBM E-score (8-mer binding enrichment) (E-score (-0.5 to 0.5)); higher = stronger / more preferred TF binding; most listed sequences are background and not binding sites; conditions: protein concentration: 200 nM; construct: GST-full length
T1 sequence: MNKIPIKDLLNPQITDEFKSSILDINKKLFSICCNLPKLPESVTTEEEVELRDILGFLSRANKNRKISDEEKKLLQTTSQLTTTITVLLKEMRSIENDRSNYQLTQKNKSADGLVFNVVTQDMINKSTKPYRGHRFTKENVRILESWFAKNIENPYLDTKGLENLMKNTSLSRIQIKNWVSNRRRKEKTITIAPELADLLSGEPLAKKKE
In short: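 For each ungapped eight-base word taken together with its reverse complement, the Universal PBM Analysis Suite assigned an E-score. Binding data came from GST-tagged yeast transcription factors, applied at about 100-200 nM, on universal all-10-mer Agilent arrays made double-stranded by primer extension. Fluorescent anti-GST marked bound protein, and scans were normalised with masliner.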

Sequence	PBM E-score
CAGAACTA	-0.0471
CCCAACCC	-0.119
GATTGTGA	-0.174
GAAAGGAC	-0.146
GTTGAGCA	0.111
GACAGCTC	-0.251
TACTCTCA	0.103
CGAAGCGC	-0.162
CCGAGCCC	-0.393
CGCCGGTC	-0.305
ATAGTTAA	0.202
AGTTTGCC	-0.133
AAAATTGA	0.0788
CCCTACCA	0.00547
CTACTGTA	0.0817
TGGTCTAA	-0.107
GACAGGCC	-0.143
GCGGCAGA	-0.247
CGAAAGGC	-0.175
AGAGGACA	-0.252
ATCTAACC	-0.0186
GTGTCATA	0.301
CGAAGGCG	-0.254
AGTTCGCA	-0.086
ATCGCGAC	-0.192

Sequence	PBM E-score
AACCGCAT	0.0219
CCCAACGG	-0.162
CCTGAGAG	-0.386
AAGCCACC	-0.269
ACCCGTTC	-0.0776
AATTGGCT	-0.0667
ACTAAACT	-0.00206
CGTTTAAC	0.365
CGAGCTAG	0.0549
ATGACAAA	0.145
GCATTCAC	0.0435
ACATCGGC	0.0159
AAGAATAA	0.204
ACAATAGT	0.0925
GCAAAGAC	-0.121
AAACTTCG	0.143
AACAGACG	-0.0138
ACTTGGAA	-0.144
ACGGCAAG	-0.0844
CCAGACGA	-0.072
ATCTGGCA	-0.00874
AATGCCAC	-0.321
GTCGTATA	0.184
CTACATGC	0.429
AAGGAGCT	-0.163

Sequence	PBM E-score
AATGGAAC	-0.0113
AAGAATAG	0.0538
ACCAGAGC	-0.00515
AACTCAAG	0.0624
GCGACCCC	-0.205
ACTTGGCG	-0.0588
AGTTGGTA	0.231
CGAAAGCG	-0.123
AGGGCTCC	-0.39
GGGACATA	-0.191
CCTTGTCG	0.124
ATCTCATG	0.141
CGTCGTAC	0.149
ACTGGAGC	-0.218
GGCACGAA	-0.0458
AATTAAGT	0.215
CAGATCTG	-0.0129
CGACAAAC	0.0428
AATTCAGA	0.0727
TGACCTCA	-0.207
CACGGGGG	-0.121
CTTGGCAA	-0.143
GGAGTACA	0.129
CAATGCTG	0.0578
ACAAAACT	0.257

Sequence	PBM E-score
GGAATTCA	0.105
CAAAAGCG	-0.045
AATCTAGG	0.0173
ACAGTGTG	0.0915
AGCGTGTA	0.472
GTTGATCA	0.211
CCAAAAGG	-0.136
GAATAGAC	-0.0252
GAAACCGA	-0.197
ACTGATGA	-0.0022
GTGGGTGA	-0.154
ACATAATA	0.362
CCTCAATC	0.0418
CCAGCAGA	-0.057
CTGCAAGC	-0.184
CTGATCAA	-0.234
CATCGGAG	-0.113
ACAAATTC	0.0996
CAATCGGC	-0.156
CAGTATTC	0.0159
CCAAGCTC	-0.0156
CACAATAA	-0.0303
GCCGCACC	-0.103
CCTGACAG	-0.111
GCCAAACA	-0.107

Sequence	PBM E-score
TGTGCCAA	0.0662
GCCGAAAA	0.0332
CTGTACGC	0.16
CTAGTGCA	-0.0988
AGTCAACT	-0.172
GCTCGGCC	-0.31
GCAAAGCA	-0.0829
CTATCGAC	-0.217
AATCGGGA	-0.0331
AGGGCTCA	-0.0529
ACAGTACT	0.125
CTCCCGTC	0.0214
CTGGAGCA	-0.292
GACGGCTC	-0.188
CCTATCTC	-0.186
TATGGCAA	0.0269
AAATACCC	-0.0433
AAGCTTGT	0.332
CCTGATCC	-0.332
CGAGCTTA	-0.113
GCCGTCAA	0.0499
AAGGTTTG	0.00619
AGCGACAA	0.00782
GTTTGGCA	-0.0431
CTTCTGCC	-0.181

Sequence	PBM E-score
AAGTTCGA	0.127
ATGCCTGC	-0.175
CTACGTAA	0.318
ATGGAGGC	-0.263
CATACAGA	0.0154
ACCAAGTG	-0.0583
AGGGCGGA	-0.28
AGGGACTC	-0.36
CGTGTCCA	0.163
GATTAAAC	0.155
ATGTCGTA	0.252
AGAACCTG	-0.154
TAACGATA	0.16
CCTGTCCC	-0.271
ATATTTCC	-0.199
AATGGTGT	0.142
TATGCCGA	0.0144
TGATCGAA	-0.00485
GTCGGCGA	-0.0767
CAGCTCAG	-0.175
ATTCGAAG	-0.0614
TAGAGCAA	-0.0684
ATGGCATG	0.215
AGCTAAAA	-0.0141
ACAGCCTC	-0.116

Sequence	PBM E-score
CGCTCCAC	-0.283
CATTTTAG	0.135
TCTTTACA	0.445
GGTTCGTA	0.00204
CCCTTCAC	-0.195
CTTTTGTC	-0.0784
TATCACAA	0.082
CTGCCGTA	-0.193
GCACCATA	-0.129
GACCCTAC	-0.185
GGTCGAAA	-0.166
AAGGCTGT	-0.118
AGGGCCTC	-0.259
CGCGGTAA	0.178
ATAGCGAT	0.0316
GGTACTCA	-0.0579
CTACGGAA	-0.0461
AACTTGAC	0.214
GCGCCGAC	-0.0823
GCATTAGA	0.0569
CCCTGCAC	-0.115
ATAAATCA	0.153
